From the supplement of paper PMC6828730
The other results are listed elsewhere or left out. Many values rest on one well or one pass, so single values are uncertain.

Experiments:
[1] = test system: hiPSC-derived cardiomyocytes; experiment: time to death of most cells in well after compound addition (days); higher = less cardiotoxic; settings: screen: 1; 10 µM
[2] = test system: hiPSC-derived cardiomyocytes; experiment: time to death of most cells in well after compound addition (days); higher = less cardiotoxic; extreme values may be limits of the assay; settings: 10 µM

Structure (SMILES)	time to death of most cells in well [1]	time to death of most cells in well ([2]; screen: 2)	time to death of most cells in well ([2]; screen: 3)	time to death of most cells in well ([2]; screen: 4)
Cc1ccc(NC(=O)c2ccc(CN3CCN(C)CC3)cc2)cc1Nc1nc(-c2cccnc2)cs1 [Masitinib (AB1010)]	> 7	> 7	> 7	6
COc1cc(Nc2ncc(F)c(Nc3ccc4c(n3)N(COP(=O)(O)O)C(=O)C(C)(C)O4)n2)cc(OC)c1OC [Fostamatinib (R788)]	1	> 7	> 7	> 7
Cc1ccccc1CN1C2=NCCN2C(=O)C2=C1CCN(Cc1ccccc1)C2 [TIC10 Analogue]	> 7	> 7	> 7	> 7
C[C@H](Nc1ncnc2[nH]cnc12)c1cc2ccc(F)cc2nc1-c1ccccn1	> 7	> 7	> 7	> 7
CC(C)N(CCC(=O)c1ccc2ccccc2c1)Cc1ccccc1	6.5	0.5	> 7	> 7
Cc1nc(Nc2ncc(C(=O)Nc3c(C)cccc3Cl)s2)cc(N2CCN(CCO)CC2)n1 [Dasatinib]	> 7	> 7	> 7	> 7
Cn1sc(=O)n(Cc2ccccc2)c1=O	0	0.5	> 7	3
C[C@@H](Oc1cc(-n2cnc3ccc(CN4CCN(C)CC4)cc32)sc1C(N)=O)c1ccccc1C(F)(F)F	> 7	> 7	> 7	> 7
COc1cc(-c2cc(-c3ccc(N4CCNCC4)cc3)cnc2C)cc(OC)c1OC	6	4.5	> 7	> 7
COC(=O)c1ccc2c(C(=Nc3ccc(N(C)C(=O)CN4CCN(C)CC4)cc3)c3ccccc3)c(O)[nH]c2c1 [Nintedanib (BIBF 1120)]	2	> 7	> 7	> 7
Nc1cccc(S(=O)(=O)N2CCCN(S(=O)(=O)c3ccc4c(c3)OCCO4)CC2)c1	> 7	> 7	> 7	> 7
Cc1nc2c(-c3cnc(N)nc3)nc(N3CCOCC3)nc2n1C(C)C	3.5	4.5	> 7	> 7
Cc1c(NC(=O)OC[C@@H]2COCCN2)cn2ncnc(Nc3ccc4c(cnn4Cc4cccc(F)c4)c3)c12	> 7	3	> 7	> 7
Cc1cc(CS(=O)(=O)c2ccccc2)cc(OCc2ccc(CN3CCC[C@@H]3CO)cc2)c1	> 7	3	> 7	> 7
Cc1ccc(S(=O)(=O)C=CC#N)cc1	1	3	3	1
Cc1[nH]nc2ccc(-c3cncc(OC[C@@H](N)Cc4ccccc4)c3)cc12	1	2	4.5	> 7
CCCCCCCCCCCCCCCCOP(=O)([O-])OCC[N+](C)(C)C [Miltefosine]	6	> 7	> 7	> 7
Cc1cc2c(F)c(Oc3ncnn4cc(OC[C@@H](C)OC(=O)[C@H](C)N)c(C)c34)ccc2[nH]1	> 7	> 7	> 7	> 7
Oc1cc(O)cc(/C=C/c2ccc(O)c(O)c2)c1 [Piceatannol]	> 7	> 7	> 7	> 7

Structure (SMILES)	time to death of most cells in well [1]	time to death of most cells in well ([2]; screen: 2)	time to death of most cells in well ([2]; screen: 3)	time to death of most cells in well ([2]; screen: 4)
O=C(NC(NC(=S)Nc1ccc(F)c([N+](=O)[O-])c1)C(Cl)(Cl)Cl)C(c1ccccc1)c1ccccc1 (configuration not stated)	1	1.5	3.5	> 7
CC1COCCN1c1cc(C2(S(C)(=O)=O)CC2)nc(-c2cccc3[nH]ccc23)n1 (configuration not stated)	> 7	> 7	> 7	> 7
Cn1c(Nc2ccc(C(F)(F)F)cc2)nc2cc(Oc3ccnc(-c4ncc(C(F)(F)F)[nH]4)c3)ccc21	6	3	4.5	> 7
C[C@@H](Oc1cc(-c2cnn(C3CCNCC3)c2)cnc1N)c1c(Cl)ccc(F)c1Cl	> 7	3	> 7	> 7
CO[C@H]1C[C@@H]2CC[C@@H](C)[C@@](O)(O2)C(=O)C(=O)N2CCCC[C@H]2C(=O)O[C@H]([C@H](C)C[C@@H]2CC[C@@H](OP(C)(C)=O)[C@H](OC)C2)CC(=O)[C@H](C)/C=C(\C)[C@@H](O)[C@@H](OC)C(=O)[C@H](C)C[C@H](C)/C=C/C=C/C=C/1C [Ridaforolimus (Deforolimus, MK-8669)]	5.5	5	> 7	> 7
CNS(=O)(=O)C[C@H]1CC[C@H](N(C)c2[nH]cnc3nccc2-3)CC1 [Oclacitinib]	> 7	5.5	> 7	> 7
Cn1c(=O)c(F)c(Nc2ccc(I)cc2F)c2c(=O)n(C[C@@H](O)CO)cnc21	> 7	6	> 7	> 7
NC1(C(=O)N[C@@H](CCO)c2ccc(Cl)cc2)CCN(c2ncnc3[nH]ccc23)CC1	> 7	4.5	6	> 7
OC(c1cc(-c2ccc(Cl)cc2)nc2ccccc12)C1CCCCN1 (configuration not stated) [Vacquinol-1]	2.5	1	3	1.5
CNC(=O)c1cc(COc2nnc(Nc3ccc(Cl)cc3)c3ccoc23)ccn1 [Telatinib]	> 7	> 7	> 7	> 7
CO[C@H]1C[C@@H]2CC[C@@H](C)[C@@](O)(O2)C(=O)C(=O)N2CCCC[C@H]2C(=O)O[C@H]([C@H](C)C[C@@H]2CC[C@@H](OCCO)[C@H](OC)C2)CC(=O)[C@H](C)/C=C(\C)[C@@H](O)[C@@H](OC)C(=O)[C@H](C)C[C@H](C)/C=C/C=C/C=C/1C [Everolimus (RAD001)]	3.5	> 7	> 7	> 7
NC(=O)c1cnc(N[C@@H]2CCCC[C@@H]2N)nc1Nc1cccc(-n2nccn2)c1	3	4.5	> 7	4
OCCn1cc(-c2ccc3c(c2)CC/C3=N\O)c(-c2ccncc2)n1	> 7	> 7	> 7	> 7
Cc1cc(C(C)Nc2ccccc2)c2nc(N3CCOCC3)cc(=O)n2c1 (configuration not stated)	> 7	> 7	> 7	> 7
COc1ccc(COc2cc3oc(=O)c4cc(C(C)O)ccc4c3cc2OC)cc1 (configuration not stated) [Palomid 529 (P529)]	3.5	> 7	> 7	> 7
NC(=O)c1ccc(N(C(N)=O)c2c(F)cccc2F)nc1-c1ccc(F)cc1F	2	2	3	> 7
CCc1nc(-c2cccc(C)c2)c(-c2ccnc(NC(=O)c3ccccc3)c2)s1	2	2	3	> 7
CCN(CC)CCCC(C)Nc1nc(C)cc(Nc2ccc3nc(C)cc(N)c3c2)n1 (configuration not stated)	> 7	> 7	> 7	> 7
COc1ncc(-c2ccc3nccc(-c4ccnnc4)c3c2)cc1NS(=O)(=O)c1ccc(F)cc1F	3.5	1.5	> 7	> 7
